pEC50: −log10 of the molar value. Not every detail of the peptide structures is certain; ends, links or a residue may be inferred. Starred links: 1 amine or outer side, 2 acyl side, 3 side chain; linkers in the order of their positions; H or OH if unused. Positions of bridges follow the written chain, without caps; N, C: chain ends. Non-standard residues stand in square brackets, D forms with d. Residues, ends and D or L forms follow the SMILES beside them. Groups on a side chain read outwards from the residue. Triazole bridges read from a SMILES are 1,4-linked. *: point of attachment. Lys(N3) = [N-]=[N+]=NCCCC[C@H](N)C(=O)O; γGlu = O=C(O)[C@H](CCC(=O)[*:2])N[*:1]; Met(O2) = CS(=O)(=O)CC[C@H](N)C(=O)O; Palmitoyl = CCCCCCCCCCCCCCCC(=O)*; dPra = C#CC[C@@H](N)C(=O)O; Ac4c = NC1(C(=O)O)CCC1; Aib = CC(C)(N)C(=O)O
Tests used:
human GLP1R = target: T1, human GLP1R (Homo sapiens, UniProt P43220); assay: cAMP activity assay in cells expressing human GLP1R; assay type: cell-based; conditions: cAMP production, HitHunter cAMPXS, 1 hour; assay buffer with or without 20% human serum (not given)
T1 construct: expressed in transfected cells; grown under Blasticidin and Hygromycin selection
T1 sequence (P43220 24-463): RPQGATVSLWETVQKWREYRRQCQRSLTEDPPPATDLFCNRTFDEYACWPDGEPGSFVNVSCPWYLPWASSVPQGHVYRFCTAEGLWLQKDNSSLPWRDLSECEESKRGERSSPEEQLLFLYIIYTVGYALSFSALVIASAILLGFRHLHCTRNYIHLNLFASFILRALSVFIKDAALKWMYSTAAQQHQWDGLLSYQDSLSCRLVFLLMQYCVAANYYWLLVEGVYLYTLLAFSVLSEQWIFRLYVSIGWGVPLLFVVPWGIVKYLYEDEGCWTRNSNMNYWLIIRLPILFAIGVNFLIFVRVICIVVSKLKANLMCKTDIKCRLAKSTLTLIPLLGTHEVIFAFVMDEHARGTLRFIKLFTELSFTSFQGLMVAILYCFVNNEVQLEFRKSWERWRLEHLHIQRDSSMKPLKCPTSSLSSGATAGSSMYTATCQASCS
Method: (§1) Activity of the peptides at the Glucagon receptor (GCGR) and GLP-1 receptor (GLP1R) was measured in a cAMP activity assay.
(§2) Peptides were dissolved in 100% DMSO and serially diluted to generate 10 point titrations. The peptide solutions were then transferred into 384-well assay plates (150 nL/well). Assay ready frozen cells expressing human GLP1R or human GCGR were suspended in growth media consisting of DMEM medium (GIBCO), 10% FBS (GIBCO), 1× NEAA(GIBCO), 1× P/S (GIBCO), 10 ug/ml Blasticidin (GIBCO) and 200 μg/mL Hygromycin (GIBCO). Cells were then diluted in assay buffer consisting of PBS (GIBCO), 7.5% BSA (Perkin Elmer), 100 μM RO 20-1724 (Sigma), with or without 20% human serum (MP Biomedical). The cell suspensions (15 μL) were then added to the assay plates containing the peptide solutions (30,000 cells/well for human GCGR; 10,000 cells/well for human GLP1R). The cells were incubated for 1 hour at room temperature in the dark. Production of cAMP was determined using HitHunter™ cAMPXS kits (DiscoverX) following manufacturer protocol. The plates were incubated for overnight at room temperature in the dark. Luminescence was measured using an EnVision Multilabel plate reader (Perkin Elmer). Native GLP-1 and Glucagon (Bachem) are used as control peptides. EC50 values were calculated using uses a 4 parameter logistic fit based on the Levenberg-Marquardt algorithm.

human GCGR = target: T2, human GCGR (Homo sapiens, UniProt P47871); assay: cAMP activity assay in cells expressing human GCGR; assay type: cell-based; conditions: ratio of human GCGR EC50 to human GLP1R EC50
T2 construct: expressed in transfected cells; grown under Blasticidin and Hygromycin selection
T2 sequence (P47871 26-477): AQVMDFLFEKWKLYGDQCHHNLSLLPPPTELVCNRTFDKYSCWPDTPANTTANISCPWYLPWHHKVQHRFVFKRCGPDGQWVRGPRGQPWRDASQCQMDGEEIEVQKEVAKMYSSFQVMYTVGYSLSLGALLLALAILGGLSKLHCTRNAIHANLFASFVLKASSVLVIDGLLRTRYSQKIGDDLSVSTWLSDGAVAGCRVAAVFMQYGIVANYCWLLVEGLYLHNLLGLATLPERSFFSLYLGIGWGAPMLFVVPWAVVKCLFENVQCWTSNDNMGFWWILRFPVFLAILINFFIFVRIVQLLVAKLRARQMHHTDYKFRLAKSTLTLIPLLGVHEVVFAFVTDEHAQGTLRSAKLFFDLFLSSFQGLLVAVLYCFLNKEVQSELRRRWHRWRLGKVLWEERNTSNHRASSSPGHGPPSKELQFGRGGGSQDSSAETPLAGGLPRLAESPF
Method: as §1, §2

SMILES	pEC50 (human GLP1R)	hGCGR/hGLP1R (hTone) (human GCGR)
CCCCCCCCCCCCCCCC(=O)N[C@@H](CCC(=O)N[C@@H](CCC(=O)NCCCC[C@H](NC(=O)[C@H](CC(=O)O)NC(=O)[C@H](CO)NC(=O)[C@@H](NC(=O)[C@H](Cc1ccccc1)NC(=O)[C@@H](NC(=O)CNC(=O)[C@H](CCC(N)=O)NC(=O)C(C)(C)NC(=O)[C@@H](N)Cc1c[nH]cn1)[C@@H](C)O)[C@@H](C)O)C(=O)N[C@@H](CO)C(=O)N[C@@H](CCCCN)C(=O)N[C@@H](Cc1ccc(O)cc1)C(=O)N[C@@H](CC(C)C)C(=O)N[C@@H](CC(=O)O)C(=O)NC1(C(=O)N[C@@H](CCCNC(=N)N)C(=O)N[C@@H](C)C(=O)N[C@@H](C)C(=O)N[C@@H](CCC(N)=O)C(=O)N[C@@H](CC(=O)O)C(=O)N[C@@H](Cc2ccccc2)C(=O)N[C@H](C(=O)N[C@@H]2Cc3cn(nn3)CCCC[C@@H](C(=O)N[C@H](C(=O)N[C@@H](CCCCN)C(=O)N[C@@H](CCC(N)=O)C(=O)O)[C@@H](C)O)NC(=O)[C@H](CCS(C)(=O)=O)NC(=O)[C@H](CC(C)C)NC(=O)[C@H](Cc3c[nH]c4ccccc34)NC2=O)C(C)C)CCC1)C(=O)O)C(=O)O [compound 27] (H-H[Aib]QGTFTSDK([γGlu-γGlu-Palmitoyl])SKYLD[Ac4c]RAAQDFV[dPra]WL[Met(O2)][Lys(N3)]TKQ-OH; triazole 24-28; N-terminus assumed)	10.38	3.3
CCCCCCCCCCCCCCCC(=O)N[C@@H](CCC(=O)N[C@@H](CCC(=O)NCCCC[C@H](NC(=O)[C@H](CC(=O)O)NC(=O)[C@H](CO)NC(=O)[C@@H](NC(=O)[C@H](Cc1ccccc1)NC(=O)[C@@H](NC(=O)CNC(=O)[C@H](CCC(N)=O)NC(=O)C(C)(C)NC(=O)[C@@H](N)Cc1c[nH]cn1)[C@@H](C)O)[C@@H](C)O)C(=O)N[C@@H](CO)C(=O)N[C@@H](CCCCN)C(=O)N[C@@H](Cc1ccc(O)cc1)C(=O)N[C@@H](CC(C)C)C(=O)N[C@@H](CC(=O)O)C(=O)NC1(C(=O)N[C@@H]2Cc3cn(nn3)CCCC[C@@H](C(=O)N[C@@H](Cc3ccccc3)C(=O)N[C@H](C(=O)N[C@@H](CCC(N)=O)C(=O)N[C@@H](Cc3c[nH]c4ccccc34)C(=O)N[C@@H](CC(C)C)C(=O)N[C@@H](CCS(C)(=O)=O)C(=O)N[C@@H](CC(=O)O)C(=O)N[C@H](C(=O)N[C@@H](CCCCN)C(=O)N[C@@H](CCC(N)=O)C(=O)O)[C@@H](C)O)C(C)C)NC(=O)[C@H](CCC(N)=O)NC(=O)[C@H](C)NC(=O)[C@H](C)NC2=O)CCC1)C(=O)O)C(=O)O [compound 25] (H-H[Aib]QGTFTSDK([γGlu-γGlu-Palmitoyl])SKYLD[Ac4c][dPra]AAQ[Lys(N3)]FVQWL[Met(O2)]DTKQ-OH; triazole 17-21; N-terminus assumed)	10.38	1.52
CCCCCCCCCCCCCCCC(=O)N[C@@H](CCC(=O)N[C@@H](CCC(=O)NCCCC[C@H](NC(=O)[C@H](CC(=O)O)NC(=O)[C@H](CO)NC(=O)[C@@H](NC(=O)[C@H](Cc1ccccc1)NC(=O)[C@@H](NC(=O)CNC(=O)[C@H](CCC(N)=O)NC(=O)C(C)(C)NC(=O)[C@@H](N)Cc1c[nH]cn1)[C@@H](C)O)[C@@H](C)O)C(=O)N[C@@H](CO)C(=O)N[C@@H](CCCCN)C(=O)N[C@@H](Cc1ccc(O)cc1)C(=O)N[C@@H](CC(C)C)C(=O)N[C@@H](CC(=O)O)C(=O)NC1(C(=O)N[C@@H](CCCNC(=N)N)C(=O)N[C@@H](C)C(=O)N[C@@H](C)C(=O)N[C@@H]2Cc3cn(nn3)CCCC[C@@H](C(=O)N[C@@H](Cc3c[nH]c4ccccc34)C(=O)N[C@@H](CC(C)C)C(=O)N[C@@H](CCS(C)(=O)=O)C(=O)N[C@@H](CC(=O)O)C(=O)N[C@H](C(=O)N[C@@H](CCCCN)C(=O)N[C@@H](CCC(N)=O)C(=O)O)[C@@H](C)O)NC(=O)[C@H](C(C)C)NC(=O)[C@H](Cc3ccccc3)NC(=O)[C@H](CC(=O)O)NC2=O)CCC1)C(=O)O)C(=O)O [compound 26] (H-H[Aib]QGTFTSDK([γGlu-γGlu-Palmitoyl])SKYLD[Ac4c]RAA[dPra]DFV[Lys(N3)]WL[Met(O2)]DTKQ-OH; triazole 20-24; N-terminus assumed)	10.38	1.84
CSCC[C@@H]1NC(=O)[C@H](CC(C)C)NC(=O)[C@H](Cc2c[nH]c3ccccc23)NC(=O)[C@@H](NC(=O)[C@@H](NC(=O)[C@H](Cc2ccccc2)NC(=O)[C@H](CC(=O)O)NC(=O)[C@H](CCC(N)=O)NC(=O)[C@H](C)NC(=O)[C@H](C)NC(=O)[C@H](CCCNC(=N)N)NC(=O)C(C)(C)NC(=O)[C@H](CC(=O)O)NC(=O)[C@H](CC(C)C)NC(=O)[C@H](Cc2ccc(O)cc2)NC(=O)[C@H](CCCCN)NC(=O)[C@H](CO)NC(=O)[C@H](CCCCN)NC(=O)[C@H](CC(=O)O)NC(=O)[C@H](CO)NC(=O)[C@@H](NC(=O)[C@H](Cc2ccccc2)NC(=O)[C@@H](NC(=O)CNC(=O)[C@H](CCC(N)=O)NC(=O)C(C)(C)NC(=O)[C@@H](N)Cc2c[nH]cn2)[C@@H](C)O)[C@@H](C)O)C(C)C)CCCCn2cc(nn2)C[C@H](C(=O)N[C@H](C(=O)N[C@@H](CCCCN)C(=O)N[C@@H](CCC(N)=O)C(=O)O)[C@@H](C)O)NC1=O [compound 10] (H-H[Aib]QGTFTSDKSKYLD[Aib]RAAQDFV[Lys(N3)]WLM[dPra]TKQ-OH; triazole 24-28; N-terminus assumed)		7.37

Reference: patent US20230063794A1, “STAPLED TRIAZOLE CO-AGONISTS OF THE GLUCAGON AND GLP-1 RECEPTORS” (Merck Sharp & Dohme LLC, priority 2019, published 2023)
